Measured values from paper PMC4450067 (PLoS Pathogens, 2015).

Key:
[1] = tested on: stress granules in MEF cells; experiment: Stress granule formation in SFV-infected MEFs with or without Pat A; type: cell-based; details: mock-infected MEFs; Pat A 100 nM for 1 h; fifty cells per treatment
[2] = tested on: G3BP-1; experiment: Co-immunoprecipitation of EGFP fusion proteins with G3BP-1 from BHK cell lysates; type: binding; details: anti-GFP IP, BHK cells, 16 h after transfection
[3] = tested on: G3BP-2; experiment: Co-immunoprecipitation of EGFP fusion proteins with G3BP-2 from BHK cell lysates; type: binding; details: anti-GFP IP, BHK cells, 16 h after transfection
[4] = tested on: G3BP-1; experiment: Immunofluorescence colocalization with G3BP-1 in SFV-infected cells; details: SFV-infected MEFs, MOI 5, 8 hpi
[5] = USP10_1–40 series, alanine mutants of EGFP-USP10_1–40

For `CC(/C=C/C(C)=C/[C@@H]1Cc2nc(cs2)[C@@H](C)C[C@@H](N)CC(=O)O[C@@H](C)C/C(C)=C/C=C\C(=O)O1)=C\CN(C)C` [Pat A, pateamine A], the “cells with SGs” value [1] was “Approximately 100%”.
For EGFP-USP10_1–40, the “G3BP-1 detected in complex” value ([2]; Fig. 4B) was “detected in complex”, the “binding to G3BP-1” value [2, 5] was “efficiently coprecipitated” and the “G3BP-2 detected in complex” value ([3]; Fig. 4B) was “detected in complex”. The “binding to G3BP-2” value [3, 5] was “efficiently coprecipitated”.
“USP10: ubiquitin-specific protease 10, cellular binding partner of G3BP” was tested, and the “overlap of USP10 with G3BP in SFV-infected cells” value [4] was “did not detect any significant overlap with G3BP”.
